# Laboratory results published in the supplement of paper PMC8728848.
# The list shows a part of the results.
# B1: PX14375C-bth-509-28-509 (Bacteroides thetaiotaomicron) (protein)
# chain: RSPQGQFTEDDNPNALVNGKIYNVYTMMRSFDITAGTPAIAIHYLRSEDSEKGSIPSDGSDVAEMYDDFLYTPTNGLLGSYWGKNYAIIYQCNDILDAIAEKETAGQTETEDIINKGEASFFRAYCYFNLVRAFGEVPLVTYKINDASEANIPKTTADKIYEQIDTDLKTAEESLPETWSTEYTGRLTWGAARSLHARTYMMRSDWDNMYKASTDVINKGLYNLKTPYNEIFTDDGENSGGSIFELQCTATAALPQSDVIGSQFCEVQGVRGAGQWDLGWGWHMATQLMADAYETGDPRKNATLLYFRKTDDEPITPENTNEPYGESPISPAMGAYFNKKAYTDPALRKEYTNKGFWVNIRLIRYSDVVLMAAEAANEKNIPGEAVDYLEMVRARARGTNTNILPKITTNDQGELREAIRHERRVELGLEPDRFYDLVRWGIASEVLHAAGKVNYQDKNALLPLPQSEIDKSKGVLVQNPDY
# Experiments:
# Test in all cases: glycan array binding signal (z-score within array); higher = stronger binding
# Conditions in all cases: glycan notation: IUPAC condensed, linker removed
# [1] = biological target: Neu5Ac(a2-6)Gal(b1-4)GlcNAc(b1-3)Gal(b1-4)GlcNAc(b1-3)Gal(b1-4)GlcNAc(b1-2)Man(a1-3)[Neu5Ac(a2-6)Gal(b1-4)GlcNAc(b1-3)Gal(b1-4)GlcNAc(b1-3)Gal(b1-4)GlcNAc(b1-2)Man(a1-6)]GalNAc
# Procedure, shortened: (§1)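 The binding signal is a Z-score computed within each array. Data were drawn from 3228 arrays in the Consortium for Functional Glycomics database, restricted to those with a known protein sequence. Scores were averaged over arrays of the same protein sequence at different concentrations or buffers, and over linkers, and negative values can be taken as non-binding.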
# [2] = biological target: Neu5Ac(a2-6)Gal(b1-4)GlcNAc(b1-3)Gal(b1-4)GlcNAc(b1-3)GalNAc
# Procedure, shortened: as §1
# [3] = biological target: Neu5Ac(a2-6)Gal(b1-4)GlcNAc(b1-3)Gal(b1-4)GlcNAc(b1-3)[Neu5Ac(a2-6)Gal(b1-4)GlcNAc(b1-3)Gal(b1-4)GlcNAc(b1-6)]GalNAc
# Procedure, shortened: as §1
# [4] = biological target: Neu5Ac(a2-6)Gal(b1-4)GlcNAc(b1-3)Gal(b1-4)GlcNAc(b1-6)[Gal(b1-3)]GalNAc
# Procedure, shortened: as §1
# [5] = biological target: Neu5Ac(a2-6)Gal(b1-4)GlcNAc(b1-3)Gal(b1-4)[Fuc(a1-3)]GlcNAc(b1-3)Gal(b1-4)[Fuc(a1-3)]GlcNAc
# Procedure, shortened: as §1
# [6] = biological target: Neu5Ac(a2-6)Gal(b1-4)GlcNAc(b1-3)GalNAc
# Procedure, shortened: as §1
# [7] = biological target: Neu5Ac(a2-6)Gal(b1-4)GlcNAc(b1-3)[Neu5Ac(a2-6)Gal(b1-4)GlcNAc(b1-6)]GalNAc
# Procedure, shortened: as §1
# [8] = biological target: Neu5Ac(a2-6)Gal(b1-4)GlcNAc(b1-6)GalNAc
# Procedure, shortened: as §1
# [9] = biological target: Neu5Ac(a2-6)Gal(b1-4)GlcNAc(b1-6)[Gal(b1-3)GlcNAc(b1-3)]Gal(b1-4)Glc
# Procedure, shortened: as §1
# [10] = biological target: Neu5Ac(a2-6)Gal(b1-4)GlcNAc(b1-6)[Gal(b1-3)]GalNAc
# Procedure, shortened: as §1
# [11] = biological target: Neu5Ac(a2-6)Gal(b1-4)GlcNAc6S
# Procedure, shortened: as §1
# [12] = biological target: Neu5Ac(a2-6)GalNAc
# Procedure, shortened: as §1
# [13] = biological target: Neu5Ac(a2-6)GalNAc(b1-4)GlcNAc
# Procedure, shortened: as §1
# [14] = biological target: Neu5Ac(a2-6)GalNAc(b1-4)GlcNAc6S
# Procedure, shortened: as §1
# [15] = biological target: Neu5Ac(a2-6)GlcNAc(b1-4)GlcNAc
# Procedure, shortened: as §1
# [16] = biological target: Neu5Ac(a2-6)GlcNAc(b1-4)GlcNAc(b1-4)GlcNAc
# Procedure, shortened: as §1
# [17] = biological target: Neu5Ac(a2-8)Neu5Ac
# Procedure, shortened: as §1
# [18] = biological target: Neu5Ac(a2-8)Neu5Ac(a2-3)Gal(b1-3)GalNAc(b1-4)[Neu5Ac(a2-3)]Gal(b1-4)Glc
# Procedure, shortened: as §1
# [19] = biological target: Neu5Ac(a2-8)Neu5Ac(a2-3)Gal(b1-3)GalNAc(b1-4)[Neu5Ac(a2-8)Neu5Ac(a2-3)]Gal(b1-4)Glc
# Procedure, shortened: as §1
# [20] = biological target: Neu5Ac(a2-8)Neu5Ac(a2-3)Gal(b1-4)Glc
# Procedure, shortened: as §1
# [21] = biological target: Neu5Ac(a2-8)Neu5Ac(a2-3)Gal(b1-4)GlcNAc
# Procedure, shortened: as §1
# [22] = biological target: Neu5Ac(a2-8)Neu5Ac(a2-3)[Gal(b1-3)GalNAc(b1-4)]Gal(b1-4)Glc
# Procedure, shortened: as §1
# [23] = biological target: Neu5Ac(a2-8)Neu5Ac(a2-3)[GalNAc(b1-4)]Gal(b1-4)Glc
# Procedure, shortened: as §1
# [24] = biological target: Neu5Ac(a2-8)Neu5Ac(a2-8)Neu5Ac
# Procedure, shortened: as §1
# [25] = biological target: Neu5Ac(a2-8)Neu5Ac(a2-8)Neu5Ac(a2-3)Gal(b1-4)Glc
# Procedure, shortened: as §1
# [26] = biological target: Neu5Ac(a2-8)Neu5Ac(a2-8)Neu5Ac(a2-3)[Gal(b1-3)GalNAc(b1-4)]Gal(b1-4)Glc
# Procedure, shortened: as §1
# [27] = biological target: Neu5Ac(a2-8)Neu5Ac(a2-8)Neu5Ac(a2-3)[GalNAc(b1-4)]Gal(b1-4)Glc
# Procedure, shortened: as §1
# [28] = biological target: Neu5Ac(a2-8)Neu5Ac(a2-8)Neu5Ac(a2-8)Neu5Ac(a2-3)[GalNAc(b1-4)]Gal(b1-4)Glc
# Procedure, shortened: as §1
# [29] = biological target: Neu5Ac(a2-8)Neu5Gc(a2-3)Gal(b1-4)GlcNAc
# Procedure, shortened: as §1
# [30] = biological target: Neu5Ac(b2-6)Gal(b1-4)GlcNAc
# Procedure, shortened: as §1
# [31] = biological target: Neu5Ac(b2-6)GalNAc
# Procedure, shortened: as §1
# [32] = biological target: Neu5Ac9Ac(a2-3)Gal(b1-3)GlcNAc
# Procedure, shortened: as §1
# [33] = biological target: Neu5Ac9Ac(a2-3)Gal(b1-4)GlcNAc
# Procedure, shortened: as §1
# [34] = biological target: Neu5Ac9Ac(a2-6)Gal(b1-4)GlcNAc
# Procedure, shortened: as §1
# [35] = biological target: Neu5Gc(a2-3)Gal(b1-3)GlcNAc
# Procedure, shortened: as §1
# [36] = biological target: Neu5Gc(a2-3)Gal(b1-3)[Fuc(a1-4)]GlcNAc
# Procedure, shortened: as §1
# [37] = biological target: Neu5Gc(a2-3)Gal(b1-4)Glc
# Procedure, shortened: as §1
# [38] = biological target: Neu5Gc(a2-3)Gal(b1-4)GlcNAc
# Procedure, shortened: as §1
# [39] = biological target: Neu5Gc(a2-3)Gal(b1-4)GlcNAc(b1-3)Gal(b1-4)GlcNAc(b1-2)Man(a1-3)[Neu5Gc(a2-3)Gal(b1-4)GlcNAc(b1-3)Gal(b1-4)GlcNAc(b1-2)Man(a1-6)]Man(b1-4)GlcNAc(b1-4)GlcNAc
# Procedure, shortened: as §1
# [40] = biological target: Neu5Gc(a2-3)Gal(b1-4)[Fuc(a1-3)]GlcNAc
# Procedure, shortened: as §1
# [41] = biological target: Neu5Gc(a2-6)Gal(b1-4)GlcNAc
# Procedure, shortened: as §1
# [42] = biological target: Neu5Gc(a2-6)GalNAc
# Procedure, shortened: as §1
# [43] = biological target: Neu5Gc(a2-8)Neu5Ac(a2-3)Gal(b1-4)GlcNAc
# Procedure, shortened: as §1
# [44] = biological target: Neu5Gc(a2-8)Neu5Gc(a2-3)Gal(b1-4)GlcNAc
# Procedure, shortened: as §1
# [45] = biological target: Neu5Gc(a2-8)Neu5Gc(a2-3)Gal(b1-4)GlcNAc(b1-3)Gal(b1-4)GlcNAc
# Procedure, shortened: as §1
binder,measurement,setting,value
B1,glycan array binding signal (z-score),[1],0.19
same,glycan array binding signal (z-score),[2],-0.226
same,glycan array binding signal (z-score),[3],-0.341
same,glycan array binding signal (z-score),[4],-0.11
same,glycan array binding signal (z-score),[5],-0.086
same,glycan array binding signal (z-score),[6],0.155
same,glycan array binding signal (z-score),[7],-0.322
same,glycan array binding signal (z-score),[8],-0.184
same,glycan array binding signal (z-score),[9],-0.117
same,glycan array binding signal (z-score),[10],-0.168
same,glycan array binding signal (z-score),[11],-0.292
same,glycan array binding signal (z-score),[12],-0.377
same,glycan array binding signal (z-score),[13],-0.389
same,glycan array binding signal (z-score),[14],-0.322
same,glycan array binding signal (z-score),[15],-0.42
same,glycan array binding signal (z-score),[16],-0.356
same,glycan array binding signal (z-score),[17],4.99
same,glycan array binding signal (z-score),[18],-0.132
same,glycan array binding signal (z-score),[19],-0.305
same,glycan array binding signal (z-score),[20],-0.278
same,glycan array binding signal (z-score),[21],-0.08
same,glycan array binding signal (z-score),[22],-0.376
same,glycan array binding signal (z-score),[23],-0.197
same,glycan array binding signal (z-score),[24],-0.37
same,glycan array binding signal (z-score),[25],-0.502
same,glycan array binding signal (z-score),[26],-0.213
same,glycan array binding signal (z-score),[27],-0.314
same,glycan array binding signal (z-score),[28],0.139
same,glycan array binding signal (z-score),[29],5.56
same,glycan array binding signal (z-score),[30],0.233
same,glycan array binding signal (z-score),[31],-0.269
same,glycan array binding signal (z-score),[32],-0.47
same,glycan array binding signal (z-score),[33],-0.093
same,glycan array binding signal (z-score),[34],-0.236
same,glycan array binding signal (z-score),[35],-0.256
same,glycan array binding signal (z-score),[36],-0.166
same,glycan array binding signal (z-score),[37],-0.075
same,glycan array binding signal (z-score),[38],-0.215
same,glycan array binding signal (z-score),[39],2.42
same,glycan array binding signal (z-score),[40],-0.511
same,glycan array binding signal (z-score),[41],-0.332
same,glycan array binding signal (z-score),[42],-0.21
same,glycan array binding signal (z-score),[43],-0.167
same,glycan array binding signal (z-score),[44],-0.338
same,glycan array binding signal (z-score),[45],-0.272
